The campaign covered roughly 39,000 compounds. About 220 (0.56%) showed activity. The list shows a part of the results.
system: Escherichia coli K-12 BW25113; test: relative growth (OD600 normalised to plate interquartile mean) (fraction); higher = less growth inhibition, active = 0.2 or less; details: 50 µM; LB; incubation time: overnight (16-24 h)
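Further: static incubation at 37 °C against the wild-type strain, values averaged over two biological replicates.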

Question: `C[C@H]1CN([C@@H](C)CO)C(=O)Cc2cc(NS(=O)(=O)c3cn(C)cn3)ccc2O[C@H]1CN(C)Cc1ccncc1` was tested. Which relative growth did it give?
Answer: inactive: 0.996

Question: How did the relative growth turn out when `C[C@H]1CN([C@@H](C)CO)C(=O)Cc2cc(NS(=O)(=O)c3ccc(Cl)cc3)ccc2O[C@@H]1CN(C)Cc1ccc(Cl)c(Cl)c1` was run?
Answer: inactive: 0.994

Question: How did the relative growth turn out when `CC(C)CC#Cc1cnc2c(c1)C(=O)N([C@H](C)CO)C[C@H](C)[C@@H](CN(C)C(=O)CCN1CCCCC1)O2` was run?
Answer: inactive: 1.01

Question: `C[C@@H]1CN([C@@H](C)CO)C(=O)Cc2cc(NC(=O)Nc3ccccc3)ccc2O[C@H]1CN(C)Cc1ccc(C(=O)Nc2ccccc2N)cc1` was tested. Which relative growth did it give?
Answer: inactive: 0.897

Question: For `CC(C)NC(=O)N(C)C[C@H]1Oc2c(NS(=O)(=O)c3ccc(Cl)cc3)cccc2C(=O)N([C@@H](C)CO)C[C@H]1C`, which relative growth is on record?
Answer: inactive: 0.993

Question: How did the relative growth turn out when `C[C@H](CO)N1C[C@H](C)[C@H](CN(C)C(=O)Nc2ccc(C(F)(F)F)cc2)Oc2c(NC(=O)NC3CCCCC3)cccc2C1=O` was run?
Answer: inactive: 0.968

Question: With `C[C@H]1CN([C@@H](C)CO)C(=O)c2cc(/C=C/c3ccccc3)cnc2O[C@H]1CN(C)C(=O)c1cnccn1` as the compound, how does the relative growth read?
Answer: inactive: 1.01

Question: How did the relative growth turn out when `C[C@@H]1CN([C@@H](C)CO)C(=O)c2cc(NC(=O)Cn3cnnn3)ccc2O[C@@H]1CN(C)CC1CCCCC1` was run?
Answer: inactive: 1.01

Question: How did the relative growth turn out when `C[C@H](CO)N1C[C@H](C)[C@H](CN(C)Cc2ccc(C(F)(F)F)cc2)OCCCC[C@H](C)Oc2ccc(NC(=O)Nc3ccc(F)cc3)cc2C1=O` was run?
Answer: inactive: 0.981

Question: With `Cc1ccc(S(=O)(=O)N(C)C[C@@H]2OCCCC[C@H](C)Oc3ccc(NS(=O)(=O)c4ccc(F)cc4)cc3C(=O)N([C@@H](C)CO)C[C@@H]2C)cc1` as the compound, how does the relative growth read?
Answer: inactive: 1.01

Question: `Cc1noc(C)c1S(=O)(=O)N(C)C[C@H]1Oc2ccc(NS(=O)(=O)c3ccccc3)cc2CC(=O)N([C@H](C)CO)C[C@H]1C` was tested. Which relative growth did it give?
Answer: inactive: 0.967

Question: For `Cc1ccc(S(=O)(=O)N(C)C[C@H]2Oc3ncc(C#CCC(C)C)cc3C(=O)N([C@H](C)CO)C[C@@H]2C)cc1`, which relative growth is on record?
Answer: inactive: 1

Question: Which relative growth does the source give for `C[C@H](CO)N1C[C@H](C)[C@H](CN(C)Cc2ccc(C(=O)Nc3ccccc3N)cc2)Oc2ccc(NC(=O)Nc3ccc(F)cc3)cc2CC1=O` here?
Answer: inactive: 0.976

Question: For `COC(=O)c1c(CC[C@@H](CO)NC(=O)N[C@H](Cn2cc(Cc3ccccc3)nn2)C(C)C)oc(C(C)=O)c1C(=O)OC`, which relative growth is on record?
Answer: inactive: 0.996

Question: `CCCOc1cc(C)c(N)cc1C` was tested. Which relative growth did it give?
Answer: inactive: 1

Question: Which relative growth does the source give for `O=C1OC(=O)[C@H]2[C@@H]1[C@H]1CC[C@H]2O1` here?
Answer: active: 0.16

Question: With `C[C@H]1CN([C@@H](C)CO)C(=O)c2cccc(NC(=O)Nc3ccc(C(F)(F)F)cc3)c2O[C@H]1CN(C)Cc1ccc2c(c1)OCO2` as the compound, how does the relative growth read?
Answer: inactive: 0.972

Question: `CN(C)CCCCNC(=O)[C@@H]1C[C@@H]2C(=O)N[C@@H](CCCC[N+](C)(C)C)C(=O)N2[C@@H]1c1ccc(O)cc1` was tested. Which relative growth did it give?
Answer: inactive: 0.993

Question: With `C[C@@H]1CN([C@@H](C)CO)C(=O)Cc2cc(NS(C)(=O)=O)ccc2O[C@@H]1CN(C)C(=O)Nc1ccccc1` as the compound, how does the relative growth read?
Answer: inactive: 1.02

Question: Which relative growth does the source give for `CC(C)NC(=O)Nc1ccc2c(c1)C(=O)N([C@@H](C)CO)C[C@@H](C)[C@@H](CN(C)S(=O)(=O)c1ccc(F)cc1)O2` here?
Answer: inactive: 1

Question: For `C[C@H](CO)N1C[C@H](C)[C@H](CN(C)C(=O)C2CCCCC2)OCCCC[C@H](C)Oc2ccc(NC(=O)C3CCCCC3)cc2C1=O`, which relative growth is on record?
Answer: inactive: 0.999

Question: Which relative growth does the source give for `Cc1noc(C)c1NC(=O)N(C)C[C@H]1Oc2ccc(NC(=O)Cn3cnnn3)cc2CC(=O)N([C@@H](C)CO)C[C@@H]1C` here?
Answer: inactive: 1

Question: For `COc1ccc(S(=O)(=O)N(C)C[C@H]2Oc3c(NS(=O)(=O)c4cn(C)cn4)cccc3C(=O)N([C@H](C)CO)C[C@H]2C)cc1`, which relative growth is on record?
Answer: inactive: 1.01

Question: For `C[C@@H]1CN([C@@H](C)CO)C(=O)c2ccccc2-c2ccccc2CO[C@H]1CN(C)S(=O)(=O)c1ccc(C(F)(F)F)cc1`, which relative growth is on record?
Answer: inactive: 1.06

Question: With `CCOC(=O)c1c(C)cc(O)cc1O` as the compound, how does the relative growth read?
Answer: inactive: 0.997

Question: `Cc1noc(C)c1NC(=O)Nc1ccc2c(c1)C(=O)N([C@H](C)CO)C[C@H](C)[C@H](CN(C)Cc1ccc(C(=O)O)cc1)OCCCC[C@H](C)O2` was tested. Which relative growth did it give?
Answer: inactive: 1.03

Question: With `CN1C2=CC(=O)/C(=N\NC(N)=O)C=C2C[C@H]1S(=O)(=O)O` as the compound, how does the relative growth read?
Answer: inactive: 1.02

Question: Which relative growth does the source give for `C[C@H](CO)N1C[C@H](C)[C@@H](CN(C)C(=O)Cc2ccccc2)OCCCC[C@H](C)Oc2ccc(NC(=O)NC3CCCCC3)cc2C1=O` here?
Answer: inactive: 0.973

Question: With `C[C@H]1CN([C@@H](C)CO)C(=O)c2cccc(NC(=O)c3cnccn3)c2O[C@@H]1CN(C)CC1CCCCC1` as the compound, how does the relative growth read?
Answer: inactive: 0.984

Question: Which relative growth does the source give for `Cc1ccc(S(=O)(=O)Nc2ccc3c(c2)C(=O)N([C@@H](C)CO)C[C@@H](C)[C@H](CN(C)Cc2ccc(C(=O)O)cc2)OCCCC[C@@H](C)O3)cc1` here?
Answer: inactive: 0.975

Question: For `Cc1ccc(S(=O)(=O)Nc2ccc3c(c2)CC(=O)N([C@H](C)CO)C[C@H](C)[C@H](CN(C)Cc2ccc(C(F)(F)F)cc2)O3)cc1`, which relative growth is on record?
Answer: inactive: 1.01

Question: Which relative growth does the source give for `O=C(C[C@@H]1CC[C@@H]2[C@H](COC[C@H](O)CN2C(=O)Nc2cccc(F)c2)O1)NCCCN1CCOCC1` here?
Answer: inactive: 0.957

Question: With `CCCOc1ccc(S(=O)(=O)N2CCN(CCO)CC2)cc1-c1nc2c(CCC)cn(CC)c2c(=O)[nH]1` as the compound, how does the relative growth read?
Answer: inactive: 1.01

Question: With `CC12C=CC(=O)C=C1CCC1C2C(O)CC2(C)C1CCC2(O)C(=O)CO` (stereo not drawn) as the compound, how does the relative growth read?
Answer: inactive: 1.05

Question: Which relative growth does the source give for `C[C@H](CO)N1C[C@H](C)[C@H](CN(C)Cc2ccc(Oc3ccccc3)cc2)Oc2ccc(NC(=O)Cc3cn(C)c4ccccc34)cc2C1=O` here?
Answer: inactive: 1.08

Question: How did the relative growth turn out when `COc1ccc2cc1Oc1ccc(cc1)C[C@H]1c3c(cc4c(c3Oc3cc5c(cc3OC)CCN(C)[C@@H]5C2)OCO4)CCN1C` was run?
Answer: inactive: 0.993

Question: Which relative growth does the source give for `COc1cccc(S(=O)(=O)N[C@H]2CC[C@H](CCn3cc(-c4ccccc4OC)nn3)O[C@H]2CO)c1` here?
Answer: inactive: 1.02

Question: `CC(C)NC(=O)N(C)C[C@H]1Oc2c(NS(=O)(=O)c3cn(C)cn3)cccc2C(=O)N([C@H](C)CO)C[C@H]1C` was tested. Which relative growth did it give?
Answer: inactive: 0.992
